# Whole data set: some 110,000 compounds, median “z-score” near -0.1, cut for the highest 2% near 2. The list shows a part of the results. Active and inactive are the calls of the source.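 How the source made its calls: active means z-score in the third read window above 3 or below -3; inactive means the rest.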
# Target: Metabotropic glutamate receptor 8 (Rattus norvegicus) (UniProt P70579)
# Experiment: rat mGluR8 modulators via GIRK flux, primary screen, cell-based, thallium flux, HTS (AID 488969)
# Conditions: HEK293 rat mGluR8, GIRK (G protein-gated inwardly rectifying potassium channel) thallium flux, FluoZin2; at 10 µM; stronger effect = higher value; submaximal glutamate (EC20) added with thallium
# Sequence of UniProt P70579 (P70579 whole entry, looked up): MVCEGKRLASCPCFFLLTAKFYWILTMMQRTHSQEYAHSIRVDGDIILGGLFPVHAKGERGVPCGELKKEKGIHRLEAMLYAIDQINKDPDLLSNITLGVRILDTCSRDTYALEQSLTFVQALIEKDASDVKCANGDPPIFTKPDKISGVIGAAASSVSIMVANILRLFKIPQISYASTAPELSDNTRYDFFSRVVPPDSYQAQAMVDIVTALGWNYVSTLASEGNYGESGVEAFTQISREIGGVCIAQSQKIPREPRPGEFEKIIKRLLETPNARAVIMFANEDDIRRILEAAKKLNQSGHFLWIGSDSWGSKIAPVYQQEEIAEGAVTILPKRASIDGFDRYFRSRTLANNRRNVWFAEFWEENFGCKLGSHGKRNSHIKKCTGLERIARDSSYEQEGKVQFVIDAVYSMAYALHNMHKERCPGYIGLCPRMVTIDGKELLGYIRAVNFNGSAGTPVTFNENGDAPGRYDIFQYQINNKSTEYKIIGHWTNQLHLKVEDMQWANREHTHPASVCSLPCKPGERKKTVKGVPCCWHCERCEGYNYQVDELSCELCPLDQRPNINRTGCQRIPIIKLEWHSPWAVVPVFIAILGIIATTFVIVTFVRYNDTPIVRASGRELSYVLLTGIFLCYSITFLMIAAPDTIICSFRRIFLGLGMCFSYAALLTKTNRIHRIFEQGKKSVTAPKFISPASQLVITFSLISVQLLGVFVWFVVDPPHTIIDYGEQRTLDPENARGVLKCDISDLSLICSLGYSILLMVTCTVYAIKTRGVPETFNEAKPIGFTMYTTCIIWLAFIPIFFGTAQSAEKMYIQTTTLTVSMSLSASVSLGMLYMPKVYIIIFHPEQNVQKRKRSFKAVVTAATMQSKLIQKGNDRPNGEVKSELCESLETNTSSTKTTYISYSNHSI
row,Compound,z-score
1,C=CCNC(=S)NNC(=O)C(CCCC)CC(C)(C)O (stereo not given),0.000994
2,COc1cccc2sc(Nc3nc(-c4ccccn4)cs3)nc12,active: 5.31
3,CCCCN=C1NC(=O)C(CC(=O)Nc2ccc(Cl)cc2)S1 (stereo not given),-0.199
4,O=C(CSc1nc2ccccc2c(=O)n1-c1ccccc1)N1CCCC1,-0.689
5,COc1cc2[nH]c(=O)n(CCC(=O)N3CCN(c4cc(Cl)ccc4C)CC3)c(=O)c2cc1OC,-0.0849
6,COc1ccc(S(=O)(=O)Nc2nc3ccccc3nc2NCc2ccc3c(c2)OCO3)cc1,-0.2
7,O=C(c1nc2nc(-c3ccccc3)cc(C(F)(F)F)n2n1)N1CCCCC1,-0.137
8,COc1ccc(-c2nc(N)n(C(=O)Cc3ccccc3)n2)cc1,0.283
9,C=CCOC(=O)C1=C(C)NC(=S)NC1c1cccs1 (stereo not given),-0.36
10,N#CCCSCc1ccc(C(=O)O)o1,-0.113
11,N#CC1=C(N)Oc2cc(O)ccc2C1c1ccncc1 (stereo not given),-1.06
12,O=C1CCN(S(=O)(=O)c2ccccc2)N1,-0.131
13,CC(C)NS(=O)(=O)c1ccc(NC(=S)NC(=O)c2ccc(-c3ccccc3)cc2)cc1,-0.0819
14,N#Cc1ccc(Oc2cccc(C(=O)O)c2)cc1C#N,0.43
15,CCn1c(COc2ccc(=O)n(-c3ccccc3)n2)nnc1SCc1cccc(OC)c1,-0.259
16,CCCCCCCSc1nc(N)cc(=O)[nH]1,-0.237
17,O=C(COC(=O)c1cnccn1)Nc1ccc(Cl)cc1,0.892
18,COc1ccc(OCc2cnc(Cl)s2)cc1,-0.195
19,CCOc1ccccc1C1CC(=O)NC2=C1C(=O)CC(C)(C)C2 (stereo not given),-0.35
20,CN(C)C(=O)/C(C#N)=C\c1cc(Br)c(Sc2ccc(Cl)cc2)o1,-0.407
21,Cc1nc2ccccc2c(=O)n1NC(=O)c1c(O)c2c(n(CC(C)C)c1=O)CCCC2,-1.28
22,CCCCn1c(=O)[nH]c(=O)c2c1ncn2Cc1ccco1,-0.249
23,COc1cc(-c2cc(C(=O)OCC(=O)Nc3ccc4c(c3)OCO4)c3ccccc3n2)cc(OC)c1OC,-0.304
24,O=C(CSCc1ccc([N+](=O)[O-])cc1)Nc1ccc(S(=O)(=O)N2CCCCCC2)cc1,0.0337
25,Cn1c(=O)c2c(nc(NCCCN3CCOCC3)n2Cc2cccc(Cl)c2)n(C)c1=O,-0.133
26,COc1ccc(/C=C/C(=O)OCC(=O)Nc2cccc(C(C)=O)c2)cc1,1.31
27,O=C(NCCCCCCNC(=O)OC1CCS(=O)(=O)C1)OC1CCS(=O)(=O)C1 (stereo not given),-0.259
28,O=[N+]([O-])c1ccc(/C=C/c2ccc3cccc([N+](=O)[O-])c3n2)cc1,-0.0714

row,Compound,z-score
1,CCN(CC)c1nc(OC)nc(-n2nnc(C(C)=O)c2C)n1,-0.577
2,CCOc1ccc(-c2nc(CSCC(=O)NC3CCCc4ccccc43)c(C)o2)cc1 (stereo not given),0.0515
3,CCOc1ccc(NC(=O)CSc2n[nH]c(N)n2)c([N+](=O)[O-])c1,-0.194
4,Clc1ccccc1-c1nn2c(Cn3cnc4ccccc43)nnc2s1,-0.619
5,O=c1nc(/C=C/c2cc([N+](=O)[O-])ccc2Cl)cc(C(F)(F)F)[nH]1,-2.88
6,CCc1ccc(OCC(=O)NC(=S)Nc2cccc(CO)c2)c(Br)c1,1.5
7,CCOc1ccc(/C(O)=C2/C(=O)C(=O)N(CCOCCO)C2c2ccccc2)cc1 (stereo not given),-0.0871
8,Cc1ccc(SCC2(O)CCN(S(=O)(=O)c3ccc(Cl)cc3)CC2)cc1,0.472
9,O=C1c2ccccc2C(=O)N1CCc1nc2ccccc2c(=O)n1Cc1ccco1,-0.153
10,CCOC(=O)c1c(C)n(C)c2ccc(OC)c(NC(=O)CN3CCN(C4CCCCC4)CC3)c12,0.148
11,Cc1occc1C(=O)OCC(=O)Nc1ccc(F)cc1,0.794
12,Nc1nc(SCC(=O)N2CCc3ccccc3C2)[nH]c(=O)c1-c1ccccc1,-1.33
13,O=C(NCc1ccccc1Cl)c1ccc(Cn2cc(C(F)(F)F)ccc2=O)cc1,-0.285
14,COc1ccc(/C=N/Nc2nnc(-c3ccccc3)c(=O)[nH]2)cc1,-0.174
15,COc1ccccc1N1CCN(C(=O)c2c(-c3ccccc3Cl)noc2C)CC1,0.209
16,O=C(CSc1nc(Nc2ccccc2)nc(N2CCOCC2)n1)Nc1ccc2c(c1)OCCO2,-0.527
17,Cc1ccc(C(=O)C[n+]2cc(-c3ccccc3)n3c2CCCCC3)cc1,0.0411
18,CC/S(CC1CC1(Cl)Cl)=N\S(=O)(=O)c1ccc(C)cc1 (stereo not given),-0.695
19,Cc1cc(C)nc(N/N=C/c2cccc3ccccc23)n1,-0.0683
20,COc1ccccc1NS(=O)(=O)c1cccc(NC(=O)NC2CCCCC2)c1,-0.203
21,O=C(C1Cc2ccccc2CN1S(=O)(=O)c1ccc(F)cc1)N1CCOCC1 (stereo not given),0.521
22,Cc1ccc(/C=N/Nc2ccc(Cl)c(C(=O)O)c2)s1,0.684
23,CC1CCN(C(=S)Nc2ccc(SC(F)F)cc2)CC1,0.000321
24,COc1ccc2nc(SCC(=O)N3CCN(c4ccc(F)cc4)CC3)c(C#N)cc2c1,-0.863
25,Cc1cc(C(=O)NCc2ccco2)no1,-0.0735
26,N#Cc1nc(COc2ccccc2F)oc1N1CCCCCC1,-0.537
27,Cc1ccc(CN(c2ccc(C(=O)NCc3cccnc3)cc2)S(C)(=O)=O)cc1,0.0278

# Reference: PubChem BioAssay AID488969 (Vanderbilt High Throughput Screening Facility, 2010)
